The text below walks through data of PMC5892938.

The other results are listed elsewhere or left out. At the low end of the ranking, values are background and their order means little.

The assay deals with GST-SBP-SLBP (stem-loop binding protein) (UniProt Q14493). Kind of assay: targeted RNA Bind-n-Seq.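 Note: DESeq read counts versus GST-SBP nonspecific binding control pulldown.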 The settings on record: RBNS binding buffer: 25 mM Tris pH 7.5, 150 mM KCl, 3 mM MgCl2, 0.1% Tween, 0.5 mg/mL BSA, 1 mM DTT; 27 nM protein, 750 pM RNA pool; temperature not stated; high values mean tight binding.
In the case of “GGUCACGUCUCAAUCAACUCUUUUUCAGGAGUUUCCUCCUGUUUUCUCAACAGCUCGCAGUCAAG”, the binding signal (log2 fold change) stood at 0.0769. On to “GGUCACGUCUCAAUCAACUCUUCCUCAGGAGUUUUCUCCUGCAUAUUCAACAGCUCGCAGUCAAG”, for which the binding signal (log2 fold change) was determined as 0.0455. To “GGUCACGUCUCAAUCAACUCAUCCCCCAGGGAAAACCCUGGCUUAUUCAACAGCUCGCAGUCAAG” belongs -0.0245; to “GGUCACGUCUCAAUCAACUCUAGUCCCAGGGAAACCCCUGGCAAAUUCAACAGCUCGCAGUCAAG”, -0.0685. With “GGUCACGUCUCAAUCAACUCAACUCCAGGAGUUUUCUCCUGUAUUUUCAACAGCUCGCAGUCAAG”, the binding signal (log2 fold change) was -0.11. Consider “GGUCACGUCUCAAUCAACUCAACUUCCAGGGAAAUCCCUGGCUAAUUCAACAGCUCGCAGUCAAG”, for which the binding signal (log2 fold change) worked out at 0.0407. To “GGUCACGUCUCAAUCAACUCUUCGCCCAGGGAAAGCCCUGGUUAUCUCAACAGCUCGCAGUCAAG” belongs -0.326; to “GGUCACGUCUCAAUCAACUCAGUUUCAGGAGUUUUCUCCUGCAUAUUCAACAGCUCGCAGUCAAG”, 0.0714. Turning to “GGUCACGUCUCAAUCAACUCUAUCUCCAGGGAAACCCCUGGUUUUUUCAACAGCUCGCAGUCAAG”, the binding signal (log2 fold change) was 0.0347. Regarding “GGUCACGUCUCAAUCAACUCUUCUCCCAGGGAAAACCCUGGCAUUUUCAACAGCUCGCAGUCAAG”, the binding signal (log2 fold change) was found to be 0.0216. Turning to “GGUCACGUCUCAAUCAACUCUUCUUCCAGGGAAAUCCCUGGCAAUCUCAACAGCUCGCAGUCAAG”, the binding signal (log2 fold change) was 0.0235.

“GGUCACGUCUCAAUCAACUCUUCAGAGGGGGGGAAAACCCCUUUACCCUCAAUCUCAACAGCUCGCAGUCAAG”: the binding signal (log2 fold change) is -0.217. To “GGUCACGUCUCAAUCAACUCAAAAGAGGGGGGGAAAACCCCUUUGCCCUCAUACUCAACAGCUCGCAGUCAAG” belongs 0.192; to “GGUCACGUCUCAAUCAACUCUAUUUCAGGAGUUUACUCCUGCAAUCUCAACAGCUCGCAGUCAAG”, 0.143; to “GGUCACGUCUCAAUCAACUCUAUUUCAGGAGUUUCCUCCUGCUAACUCAACAGCUCGCAGUCAAG”, 0.228. Regarding “GGUCACGUCUCAAUCAACUCAUCGGAGGGGGGGAAAACCCCUUUACCCUCAAUAUCAACAGCUCGCAGUCAAG”, the binding signal (log2 fold change) is -0.228. Regarding “GGUCACGUCUCAAUCAACUCAUUCUCCAGGGAAAGCCCUGGUAUUUUCAACAGCUCGCAGUCAAG”, the binding signal (log2 fold change) was -0.132. “GGUCACGUCUCAAUCAACUCAACAGAGGGGGGGAAAACCCCUUUGCCCUCCACAUCAACAGCUCGCAGUCAAG”: the binding signal (log2 fold change) is -0.464. Regarding “GGUCACGUCUCAAUCAACUCAAGUCCCAGGGAAAACCCUGGUUUAUUCAACAGCUCGCAGUCAAG”, the binding signal (log2 fold change) is -0.105.

Take “GGUCACGUCUCAAUCAACUCUAUAGAGGGGGGGAAAACCCCUUUACCCUCGUCUUCAACAGCUCGCAGUCAAG”: the binding signal (log2 fold change) was -0.53. The value for “GGUCACGUCUCAAUCAACUCUUCUUCCAGGGAAAGCCCUGGCUAUGUCAACAGCUCGCAGUCAAG” was 0.127. To “GGUCACGUCUCAAUCAACUCAAUCUCCAGGGAAACCCCUGGUAAACUCAACAGCUCGCAGUCAAG” belongs 0.353. Consider “GGUCACGUCUCAAUCAACUCAAUUUCCAGGGAAAACCCUGGCAUAUUCAACAGCUCGCAGUCAAG”, for which the binding signal (log2 fold change) stood at 0.0143. As for “GGUCACGUCUCAAUCAACUCAUCUUCCAGGGAAAACCCUGGUAAAUUCAACAGCUCGCAGUCAAG”, the binding signal (log2 fold change) is -0.264. Regarding “GGUCACGUCUCAAUCAACUCUUCUUCAGGAGUUUUCUCCUGUAAAUUCAACAGCUCGCAGUCAAG”, the binding signal (log2 fold change) was 0.0221. For the sequence “GGUCACGUCUCAAUCAACUCUUCAGAGGGGGGGAAAACCCCUUUGCCCUCAUCUUCAACAGCUCGCAGUCAAG”, the binding signal (log2 fold change) was -0.555. The value for “GGUCACGUCUCAAUCAACUCAUCUUCAGGAGUUUCCUCCUGCAUAUUCAACAGCUCGCAGUCAAG” was -0.0541; that for “GGUCACGUCUCAAUCAACUCAAUCUCAGGAGUUUACUCCUGUUUUUUCAACAGCUCGCAGUCAAG” was 0.00748. To “GGUCACGUCUCAAUCAACUCUUUUCCAGGAGUUUUCUCCUGUAUAUUCAACAGCUCGCAGUCAAG” belongs 0.0311; to “GGUCACGUCUCAAUCAACUCAUUCUCCAGGGAAAUCCCUGGUAAACUCAACAGCUCGCAGUCAAG”, -0.0121. To “GGUCACGUCUCAAUCAACUCUUCCUCAGGAGUUUCCUCCUGCAUAUUCAACAGCUCGCAGUCAAG” belongs -0.184; to “GGUCACGUCUCAAUCAACUCUAUUUCAGGAGUUUACUCCUGUUAAUUCAACAGCUCGCAGUCAAG”, -0.0421.

Take “GGUCACGUCUCAAUCAACUCACUAGAGGGGGGGAAAACCCCUUUACCCUCACACUCAACAGCUCGCAGUCAAG”: the binding signal (log2 fold change) is -0.339.

With “GGUCACGUCUCAAUCAACUCAUCUCCAGGAGUUUGCUCCUGCUAUCUCAACAGCUCGCAGUCAAG”, the binding signal (log2 fold change) was determined as 0.0466.

As for “GGUCACGUCUCAAUCAACUCAUGUCCAGGAGUUUACUCCUGCUAUCUCAACAGCUCGCAGUCAAG”, the binding signal (log2 fold change) came out at 0.0724. For “GGUCACGUCUCAAUCAACUCAAGUCCCAGGGAAACCCCUGGUUUAUUCAACAGCUCGCAGUCAAG”, the binding signal (log2 fold change) is -0.363. The value for “GGUCACGUCUCAAUCAACUCAUUUCCCAGGGAAAACCCUGGCAAUCUCAACAGCUCGCAGUCAAG” was 0.0545.

Take “GGUCACGUCUCAAUCAACUCAUUCCCCAGGGAAAGCCCUGGCUUAUUCAACAGCUCGCAGUCAAG”: the binding signal (log2 fold change) was -0.261. On to “GGUCACGUCUCAAUCAACUCUUAGGAGGGGGGGAAAACCCCUUUACCCUCAUCAUCAACAGCUCGCAGUCAAG”, for which the binding signal (log2 fold change) is -0.0524.

Take “GGUCACGUCUCAAUCAACUCAUCUUCCAGGGAAAACCCUGGCUAACUCAACAGCUCGCAGUCAAG”: the binding signal (log2 fold change) came out at 0.0398. For “GGUCACGUCUCAAUCAACUCAAUCCCCAGGGAAACCCCUGGCAAAUUCAACAGCUCGCAGUCAAG”, the binding signal (log2 fold change) was found to be 0.0937. The value for “GGUCACGUCUCAAUCAACUCUCUCGAGGGGGGGAAAACCCCUUUGCCCUCAAUCUCAACAGCUCGCAGUCAAG” was -0.324; that for “GGUCACGUCUCAAUCAACUCAUUUCCCAGGGAAAACCCUGGCAUACUCAACAGCUCGCAGUCAAG” was -0.00898. “GGUCACGUCUCAAUCAACUCGUCUUCAGGAGUUUUCUCCUGUUUUUUCAACAGCUCGCAGUCAAG”: the binding signal (log2 fold change) stood at 0.0169. Take “GGUCACGUCUCAAUCAACUCAACUUCAGGAGUUUGCUCCUGUAAUCUCAACAGCUCGCAGUCAAG”: the binding signal (log2 fold change) was -0.225.

In the case of “GGUCACGUCUCAAUCAACUCUUUCGAGGGGGGGAAAACCCCUUUACCCUCUUUAUCAACAGCUCGCAGUCAAG”, the binding signal (log2 fold change) was -0.348. The value for “GGUCACGUCUCAAUCAACUCUAUCUCAGGAGUUUCCUCCUGUAUUUUCAACAGCUCGCAGUCAAG” was 0.0919.
